# System: Genes associated with the autophagy pathway
# Test: Nanostring gene expression in STHdh 111/111 cells: genes associated with the autophagy pathway
# Assay type: cell-based, mouse
# Method: Gene expression of certain transcripts of interest were measured using Nanostring Technology. […] Some STHdh 7/7 and STHdh 111/111 cell samples were not heat shocked and some wells were treated with Compound 22 at the indicated concentration on for 48 hours (Table 12). Some STHdh 7/7 and STHdh 111/111 cell samples were heat shocked for 3 hours some wells were treated with Compound 22 at the indicated concentration on for 48 hours (Table 13). Cells are washed with PBS, trypsinised, and gathered in a 15 ml falcon tube. After a short spin down for 3 minutes at 300 g, the cell pellet was washed with PBS once, before it was frozen down in liquid nitrogen. RNA was extracted with a standard protocol. The nCounter® Mouse Neuropathology Panel (Nanostring, Seattle) was used for gene expression analysis according to the manufacturer’s protocols.
smiles,measurement,setting,value
Cc1[nH]c2ccc(C(=O)NCCN(C(C)C)C(C)C)cc2c1C [Compound 22],expression of genes associated with the autophagy pathway,"10 µM or 20 µM, in comparison to untreated cells",upregulated
same,"upregulation of Slc1a1, Ctse, Atp6vlh, Atp6v0d1, Ap3s1, Lamp1, Cd68, Gsub, Gba, Man2bl, Ppt1, Hexb, Npc1 and Gga1",20 µM,≥ 1 time the standard deviation from the mean

# — patent US20230218573A1, “INDOLE COMPOUNDS FOR THE TREATMENT OF NEURODEGENERATIVE DISEASES” (GALYAN BIO, INC., priority 2020, published 2023)
